# Data reported in ChEMBL document CHEMBL1201862, “PubChem BioAssay data set” (2004).
# “And” between values parts separate entries of the source, which are not always exact repeats. Equal values may be shown once.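 96-well plates; 48 h exposure; 5 concentrations. Endpoints by linear interpolation between flanking doses. Not reached: highest tested concentration assigned. At the GI50, growth is halved.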 The source made the active and inactive calls. Cut-off read from the data, not from the text of the source: active = GI50 up to about 1.1 µM and inactive = higher. Peptide text beside a SMILES is read from it. * marks the point of attachment. Cbz = O=C(OCc1ccccc1)*
# Test system: NCI-H322M
# Test: inhibition of tumour cell growth, NCI panel, 48 h
row,Compound,GI50
1,C/C(=N/NC(=S)N1CCCCCC1)c1ccccc1O,inactive: 9.68 µM
2,Cc1ccc(/C=N/C23CC4CC(CC(C4)C2)C3)cc1,inactive: > 100 µM
3,O=c1[nH]c2nc(S)nc(S)c2[nH]1,inactive: > 100 µM
4,O=C(CC(C(=O)c1cccs1)c1ccccc1)c1ccccc1O (configuration not stated),inactive: 9.77 µM
5,COc1ccc(NC(=O)CSc2nnc(-c3ccc(NC(C)=O)cc3)o2)cc1,inactive: 16.6 µM
6,O=c1c2cc(Br)cc(Br)c2[nH]c(=S)n1-c1ccccc1,inactive: > 100 µM
7,C1CSCCCSCCCSCCCSCCCSCCCSCCCSCCCSC1,inactive: > 100 µM
8,Nc1nc(-c2ccccc2)c(Cl)c(-c2cc(Cl)ccc2O)n1,inactive: 20.8 µM
9,COc1cccc2c1OC1Sc3ccccc3-c3nn(-c4ccccc4)c-2c31 (configuration not stated),inactive: > 100 µM
10,C/C(=N\NC(N)=S)c1ccc2c(c1)OCO2,inactive: > 100 µM
11,O=C(O)CN1CCNCCN(CC(=O)O)CCNCC1,inactive: > 89.7 µM
12,CCN(CC)CCNc1ccc2nnn3c4ccc(C)cc4c(=O)c1c23,inactive: 6.89 µM
13,CCCn1c(=O)c(N2CCN(c3ccccc3)CC2)nc2sc3ccccc3c21,inactive: > 100 µM
14,CC(=O)OC1(C)C=CC(=O)C=C1,inactive: > 100 µM
15,CN(C)CCCNc1ccc([N+](=O)[O-])c2nc3ccccc3c(N)c12,active: 0.444 µM
16,CC12CCC(C(=O)OC1=O)C2(C)C (configuration not stated),inactive: > 100 µM
17,O=C1C=CC(=O)c2c(O)ccc(O)c21 [NAPHTHAZALIN],inactive: 8.61 µM
18,CC1(O)OC(=O)C2=C1CCC1C2CCC2(C)C(O)CCC12 (configuration not stated),inactive: > 100 µM
19,CCOC(=O)C(C)NC(=O)C(C)NC(=O)C(C)NC(=O)C(C)NC(=O)C(C)NC(=O)C(C)NC(=O)C(C)NC(=O)OCc1ccccc1 (configuration not stated) (Cbz-AAAAAAA-OEt; configuration not given here),inactive: > 100 µM
20,COC(=O)/C=C\C(C#N)(C#N)/N=C/c1cccs1,inactive: 18.4 µM
21,CCOC(=O)Nc1cc2ccccc2c(/N=N/c2ccccc2)c1O,inactive: > 100 µM
22,CN(C)CCCc1cccc2[nH]c3c(c12)CN(C)CC3,inactive: > 100 µM
23,CCOC(=O)CCC1(C(=O)O[C@@H]2C[C@H](C)CC[C@H]2C(C)C)CCCCC1=O (some centres not stated),inactive: > 100 µM

row,Compound,GI50
1,COc1ccccc1NC(=S)Nc1cc(C)ccn1,inactive: > 100 µM
2,CCOC(=O)c1cc2cc([N+](=O)[O-])ccc2oc1=O,inactive: > 100 µM
3,O=C(NNC(=O)c1c(Cl)c(Cl)c(Cl)c(Cl)c1-c1nc2ccccc2[nH]1)c1ccc(Cl)cc1,inactive: 52.2 µM
4,COc1cc(-c2nc(SC)nc3c2CCc2ccccc2-3)cc(OC)c1OC,inactive: > 100 µM
5,CC1=C(C)C2(C#N)C(=O)N3C(=NC(c4ccco4)NC3c3ccco3)C2(C#N)C(c2ccco2)N1 (configuration not stated),inactive: > 100 µM
6,O=C(CCC(NC(=O)OCc1ccccc1)C(=O)OCc1ccccc1)Nc1cccc(OCc2ccccc2)c1 (configuration not stated),inactive: 32.7 µM
7,Cc1ccc(N2C(N)=C(C#N)C(C#N)(C#N)C2c2ccccc2)cc1 (configuration not stated),inactive: 18.3 µM
8,OC(Cc1cnnc2ccccc12)C(Cl)(Cl)Cl (configuration not stated),inactive: > 10 µM
9,CN1CC[N+](C)=C1c1ccccc1,inactive: > 100 µM
10,COc1ccc(OC)c(/C=C/NC=O)c1,inactive: > 100 µM
11,CCCN(CCC)C(=O)c1c(N2CCN(C)CC2)c2cccnc2n2c(C)cnc12,inactive: > 100 µM
12,CC1=NN(C(=O)c2ccccc2O)C(=O)/C1=C/c1cccc([N+](=O)[O-])c1,inactive: 9.51 µM
13,COC(=O)c1cc(OC(C)=O)c2c(OC)ccc(OC)c2c1,inactive: > 100 µM
14,COc1ccc(CC2=NCCc3cc(OC)c(OC)cc32)cc1Br,inactive: 12.7 µM
15,COC(=O)c1cc2c3ccccc3n(C(C)=O)c2cn1,inactive: 36.5 µM
16,CC1(C)C[C@H]2[C@H](O)C(CO)=C3C(=O)[C@@H](O)[C@]3(C)[C@H]2C1,inactive: > 100 µM
17,CN(C)CC1CCC/C(=C\c2ccc(OC(=O)c3ccc(Cl)cc3)cc2)C1=O (configuration not stated),inactive: 5.07 µM
18,O=S(=O)(N/C(=N\O)Nc1ccc(Cl)cc1)c1ccc(S(=O)(=O)c2ccccc2)s1,inactive: 19.3 µM
19,COC(=O)C1=CO[C@@H](OC2OC(CO)C(O)C(O)C2O)[C@@H]2[C@H](C)[C@@H](O)[C@@H](O)[C@]12O (some centres not stated),inactive: > 100 µM
20,O=c1c(C(c2ccc(OCc3ccccc3)cc2)c2c(O)oc3ccccc3c2=O)c(O)oc2ccccc12,inactive: 83.9 µM
21,Cc1ccc(S(=O)(=O)N/N=C2/C3CC4CCC2C4C3)cc1 (configuration not stated),inactive: > 100 µM
22,CC(C)CCNC(=O)c1ccc(CNC(=O)/C=C/c2ccc(-c3ccccc3[N+](=O)[O-])o2)cc1,inactive: > 100 µM
23,COc1cc(O)c2c(=O)c3cccc(C)c3[nH]c2c1,inactive: 6.53 µM

row,Compound,GI50
1,CN1CC[C@]2(c3cccc(O)c3)CC(=O)/C(=C/c3ccc(Cl)c(Cl)c3)[C@@H]1C2,inactive: 1.77 µM
2,CCOC(=O)NC(Nc1ccc(C(=O)O)cc1)(C(F)(F)F)C(F)(F)F,inactive: > 100 µM
3,COc1ccc2c(c1)C1c3ccccc3CCN1CCC2 (configuration not stated),inactive: 47.1 µM
4,COC(C)(C)CCc1[nH]c2ccccc2c1CC(=O)NCCc1cncn1C,inactive: > 100 µM
5,CCNC12CCC(C1)C(C)(C)C2=O (configuration not stated),inactive: > 100 µM
6,CC1NOC(=O)C1/N=N/c1ccc(Cl)cc1Cl (configuration not stated),inactive: 28.6 µM
7,COc1ccc(OC)c(/C=C/[N+](=O)[O-])c1,inactive: 5.7 µM and inactive: 3.35 µM
8,CC1OC(OC2C(O[C@@H]3C[C@@H]4CC[C@@H]5[C@H](CC[C@]6(C)[C@@H]7[C@H](C[C@@H]56)O[C@]5(CC[C@@H](C)CO5)[C@H]7C)[C@@]4(C)C[C@H]3O)OC(CO)C(OC3OC(CO)C(O)C(O)C3O)C2O)C(O)C(O)C1O (some centres not stated),inactive: 2.37 µM
9,O=C1C/C(=C/c2ccc(/C=C3/CC(=O)N(c4cccc(Br)c4)C3=O)cc2)C(=O)N1c1cccc(Br)c1,inactive: > 100 µM
10,COc1ccc(C[P+]2(c3ccccc3)CCCCC2)cc1.O=[N+]([O-])c1ccc(C[P+]2(c3ccccc3)CCCCC2)cc1.[O-][Cl+3]([O-])([O-])[O-].[O-][Cl+3]([O-])([O-])[O-],inactive: > 100 µM
11,Cc1nc2ccccc2c(=O)n1NC(=O)c1ccccc1O,inactive: > 100 µM
12,CC12CCC(C)(c3cc(O)c(O)cc31)c1cc(O)c(O)cc12,inactive: 19.6 µM
13,COc1ccc(NC(S)=Nc2ccccc2)cc1,inactive: > 100 µM
14,Cc1cc(OC(=O)NCn2cc(-c3ccccc3)nn2)ccc1Cl,inactive: > 100 µM
15,CC(O)C(N/C=C1/N=C(c2ccccc2)OC1=O)C(=O)O (configuration not stated),inactive: > 100 µM
16,CC1=C(O)C(=O)C2C(=O)C1C1Cc3ccccc3C21 (configuration not stated),inactive: > 100 µM
17,CN(c1ccccc1)c1cc2ccccc2nn1,inactive: > 100 µM
18,O=C1C(Cl)N(c2ccc(Cl)cc2)C1c1c[nH]c2ccccc12 (configuration not stated),inactive: 16.4 µM
19,CC1(C)CC2C(/C1=N/O)C1(C)CCCC2(C)C1O (configuration not stated),inactive: > 100 µM
20,NC(Cc1ccc(N(CCCl)CCCl)cc1)C(=O)NC(CCC(=O)O)C(=O)O (configuration not stated),inactive: > 100 µM
21,CC(C)(C)OC(=O)NC(Cc1ccc(O)cn1)C(=O)O (configuration not stated),inactive: > 100 µM
